Data as given in paper PMC4336329 (PLoS ONE, 2015).
In all, about 310,000 compounds went through this assay and about 2,200 (0.71%) showed an effect of 50% or more. Effects have a minus sign here. The list shows a part of the results.

molecular target: human ether-à-go-go-related gene (hERG) potassium channel (human, UniProt Q12809); experiment: primary screen, population patch clamp on CHO cells stably expressing hERG
Sequence (Q12809 whole entry, looked up): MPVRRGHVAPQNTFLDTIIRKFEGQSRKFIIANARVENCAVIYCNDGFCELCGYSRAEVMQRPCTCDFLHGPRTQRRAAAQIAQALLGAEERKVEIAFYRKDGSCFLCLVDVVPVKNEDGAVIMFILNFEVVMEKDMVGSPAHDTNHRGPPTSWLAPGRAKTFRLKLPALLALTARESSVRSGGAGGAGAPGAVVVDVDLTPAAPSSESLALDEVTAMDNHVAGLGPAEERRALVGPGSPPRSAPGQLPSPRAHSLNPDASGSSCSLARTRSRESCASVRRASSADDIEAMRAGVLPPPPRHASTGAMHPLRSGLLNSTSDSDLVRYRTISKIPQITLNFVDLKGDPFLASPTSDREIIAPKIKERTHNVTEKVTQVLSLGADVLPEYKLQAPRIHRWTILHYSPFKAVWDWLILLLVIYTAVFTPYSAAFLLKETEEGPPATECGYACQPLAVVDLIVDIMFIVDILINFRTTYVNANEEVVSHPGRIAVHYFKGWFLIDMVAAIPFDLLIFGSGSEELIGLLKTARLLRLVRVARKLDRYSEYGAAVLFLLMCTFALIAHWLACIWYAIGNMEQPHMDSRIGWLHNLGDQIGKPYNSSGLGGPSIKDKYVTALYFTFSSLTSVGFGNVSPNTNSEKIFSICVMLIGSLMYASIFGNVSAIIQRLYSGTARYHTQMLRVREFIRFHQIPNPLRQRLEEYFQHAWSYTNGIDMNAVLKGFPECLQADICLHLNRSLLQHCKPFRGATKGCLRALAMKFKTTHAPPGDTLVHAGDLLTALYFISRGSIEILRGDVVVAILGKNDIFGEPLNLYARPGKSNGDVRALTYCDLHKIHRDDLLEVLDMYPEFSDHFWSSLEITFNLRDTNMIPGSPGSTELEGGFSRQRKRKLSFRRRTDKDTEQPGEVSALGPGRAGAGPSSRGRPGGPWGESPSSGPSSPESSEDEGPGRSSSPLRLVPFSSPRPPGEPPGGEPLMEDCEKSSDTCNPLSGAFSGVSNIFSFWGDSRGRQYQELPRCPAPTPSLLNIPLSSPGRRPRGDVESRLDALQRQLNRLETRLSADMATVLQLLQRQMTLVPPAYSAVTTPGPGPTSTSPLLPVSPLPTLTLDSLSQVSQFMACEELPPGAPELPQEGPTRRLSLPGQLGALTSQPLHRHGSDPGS

Question: For NC(=O)NC(CCC(=O)O)C(=O)O (stereo not drawn), which “hERG current change (%, negative = inhibition) at 1uM” value is on record?
Answer: 1.34%

Question: CCc1nc2ccccc2c(C(=O)OC2CCOC2=O)c1C (stereo not drawn) was tested. Which “hERG current change (%, negative = inhibition) at 1uM” value did it give?
Answer: 13.2%

Question: COc1ccccc1N1CCN(C(=O)CN(CCc2ccccc2)S(C)(=O)=O)CC1 was tested. Which “hERG current change (%, negative = inhibition) at 1uM” value did it give?
Answer: 5.29%

Question: CC(=O)OCCOc1nc(NC(C)C)nc(NC(C)C)n1 was tested. Which “hERG current change (%, negative = inhibition) at 1uM” value did it give?
Answer: 9.65%

Question: Which “hERG current change (%, negative = inhibition) at 1uM” value does the source give for COc1ccc(N(CC(=O)NCc2ccco2)S(C)(=O)=O)cc1Cl here?
Answer: 2.15%

Question: How did the “hERG current change (%, negative = inhibition) at 1uM” value turn out when COc1ccc(N2CCN(C(CNC(=O)c3ccc4c(c3)OCO4)c3cccnc3)CC2)cc1 (stereo not drawn) was run?
Answer: 10.3%

Question: With CC1CCN(c2oc(-c3ccc(F)cc3)nc2C#N)CC1 as the compound, how does the “hERG current change (%, negative = inhibition) at 1uM” value read?
Answer: 12.5%

Question: Which “hERG current change (%, negative = inhibition) at 1uM” value does the source give for CCOC(=O)Nc1ccc(Oc2ccccc2)cc1 here?
Answer: -2.01%

Question: How did the “hERG current change (%, negative = inhibition) at 1uM” value turn out when O=C(CS(=O)(=O)Cc1ccccc1)N1CCc2ccccc21 was run?
Answer: -7.59%

Question: For C[C@H]([C@@H](N)C(=O)N[C@@H](C(=O)O)[C@@H]1O[C@H](n2ccc(=O)[nH]c2=O)[C@@H](O)[C@H]1O)[C@@H](O)c1ccc(O)cn1, which “hERG current change (%, negative = inhibition) at 1uM” value is on record?
Answer: 8.26%

Question: For Cc1ccc(S(=O)(=O)N(CC(=O)Nc2ccccc2-c2ccccc2)c2ccc(C)cc2C)cc1, which “hERG current change (%, negative = inhibition) at 1uM” value is on record?
Answer: 10.7%

Question: For Cc1cc(C(=O)Nc2ncc(C)s2)c2ccccc2n1, which “hERG current change (%, negative = inhibition) at 1uM” value is on record?
Answer: 0.468%

Question: With CCn1c(O)c(N=NC(=O)CNC(=O)c2ccco2)c2ccccc21 as the compound, how does the “hERG current change (%, negative = inhibition) at 1uM” value read?
Answer: 15.1%

Question: How did the “hERG current change (%, negative = inhibition) at 1uM” value turn out when O=C(CCn1c(=S)oc2ccccc21)NC1CCCCCCC1 was run?
Answer: -0.725%

Question: How did the “hERG current change (%, negative = inhibition) at 1uM” value turn out when COc1ccc(CCNC(=S)NCCc2c[nH]c3ccccc23)cc1 was run?
Answer: 9.13%

Question: O=C(NCc1ccccc1C(F)(F)F)C1CCC(=O)N(C2CC2)C1 (stereo not drawn) was tested. Which “hERG current change (%, negative = inhibition) at 1uM” value did it give?
Answer: 4.82%

Question: O=C(Nc1ccc2snnc2c1)Nc1cccc2ccccc12 was tested. Which “hERG current change (%, negative = inhibition) at 1uM” value did it give?
Answer: 7.89%

Question: With COc1ccc(/C(N)=N/OC(=O)c2ccc([N+](=O)[O-])c(C)c2)cc1OC as the compound, how does the “hERG current change (%, negative = inhibition) at 1uM” value read?
Answer: 11.1%

Question: CCCn1c(O)c(N=N)c2ccccc21 was tested. Which “hERG current change (%, negative = inhibition) at 1uM” value did it give?
Answer: 17.1%

Question: O=C(Nc1ccnc(-c2ccncc2)n1)C1CC1 was tested. Which “hERG current change (%, negative = inhibition) at 1uM” value did it give?
Answer: 6.56%

Question: For CC[C@@H](CCC=C(C)C)C(=O)N(Cc1ccccc1)c1ccccc1, which “hERG current change (%, negative = inhibition) at 1uM” value is on record?
Answer: 2.79%

Question: With O=Cc1cn(CCC(=O)O)nc1-c1cccc(Br)c1 as the compound, how does the “hERG current change (%, negative = inhibition) at 1uM” value read?
Answer: 11.6%

Question: Which “hERG current change (%, negative = inhibition) at 1uM” value does the source give for CCC(=O)N/N=c1/sc2ccccc2n1C here?
Answer: 16%

Question: Which “hERG current change (%, negative = inhibition) at 1uM” value does the source give for COc1ccccc1C(=O)NCCC(=O)N(C)CC(=O)Nc1ccc(Cl)cc1 here?
Answer: 3.84%

Question: Which “hERG current change (%, negative = inhibition) at 1uM” value does the source give for Cc1cc(Br)ccc1NC(=O)c1ccccc1-c1ccccc1 here?
Answer: 36%

Question: With Cc1cc(C)c(S(=O)(=O)NCCc2cc3ccc(C)c(C)c3[nH]c2=O)c(C)c1 as the compound, how does the “hERG current change (%, negative = inhibition) at 1uM” value read?
Answer: 16.4%

Question: For C[C@H](NC(=O)C1CC(=O)N(c2ccc3c(c2)OCO3)C1)C(=O)NC1CCCC1 (stereo partly drawn), which “hERG current change (%, negative = inhibition) at 1uM” value is on record?
Answer: 2.67%

Question: Which “hERG current change (%, negative = inhibition) at 1uM” value does the source give for Cc1ccc(N/C=C/C(=O)c2ccccc2)cc1C here?
Answer: 14.4%

Question: For COc1ccc(S(=O)(=O)N2CCOCC2)cc1C(=O)N(C)CCOc1ccc(Cl)cc1, which “hERG current change (%, negative = inhibition) at 1uM” value is on record?
Answer: -13.5%

Question: With CC1(C)CC(NCc2ccncc2)CC(C)(C)N1 as the compound, how does the “hERG current change (%, negative = inhibition) at 1uM” value read?
Answer: 19.1%

Question: With CCNS(=O)(=O)c1ccc(NC(=S)NCc2ccco2)cc1 as the compound, how does the “hERG current change (%, negative = inhibition) at 1uM” value read?
Answer: 3.99%

Question: With COc1ccc(N2CC(C(=O)Nc3ccc4c(c3)OCCO4)CC2=O)cc1 (stereo not drawn) as the compound, how does the “hERG current change (%, negative = inhibition) at 1uM” value read?
Answer: 10%

Question: How did the “hERG current change (%, negative = inhibition) at 1uM” value turn out when Cc1ccc(-c2noc(CCC(=O)NCCN3CCc4ccccc4C3)n2)cc1 was run?
Answer: 1.82%

Question: O=C1NC(=O)N(C2CCCCC2)C(=O)C1C1c2ccccc2C(=O)N1Cc1ccccc1 (stereo not drawn) was tested. Which “hERG current change (%, negative = inhibition) at 1uM” value did it give?
Answer: 2.17%

Question: How did the “hERG current change (%, negative = inhibition) at 1uM” value turn out when CN(CC(=O)O/N=C(\N)c1ccc([N+](=O)[O-])cc1)S(=O)(=O)c1ccc2ccccc2c1 was run?
Answer: -7.16%

Question: CCNC(=O)/C(C#N)=C/c1c(N2CCN(C)CC2)nc2c(C)cccn2c1=O was tested. Which “hERG current change (%, negative = inhibition) at 1uM” value did it give?
Answer: 13.9%

Question: With CCn1c2ccccc2c2cc([N+](=O)[O-])ccc21 as the compound, how does the “hERG current change (%, negative = inhibition) at 1uM” value read?
Answer: 12.1%

Question: For CCn1cc(C(=O)NC2CCCCC2)c(=O)c2cc(S(=O)(=O)N(C)C)ccc21, which “hERG current change (%, negative = inhibition) at 1uM” value is on record?
Answer: 2.85%

Question: How did the “hERG current change (%, negative = inhibition) at 1uM” value turn out when CC(=O)c1cccc(NC(=O)Cn2cnc(S(=O)(=O)N3CCOCC3)c2)c1 was run?
Answer: 13%

Question: How did the “hERG current change (%, negative = inhibition) at 1uM” value turn out when CCOC(=O)C1CCN(C(=O)Nc2ccc3nccnc3c2)CC1 was run?
Answer: -6.7%

Question: Which “hERG current change (%, negative = inhibition) at 1uM” value does the source give for COC(=O)NC(=C(Cl)Cl)S(=O)(=O)c1ccccc1 here?
Answer: 12.2%

Question: Nc1nnc(SCC(=O)N2CCN(c3cccc(Cl)c3)CC2)n1-c1ccccc1 was tested. Which “hERG current change (%, negative = inhibition) at 1uM” value did it give?
Answer: 3.04%

Question: COc1ccccc1-c1cc(C(F)(F)F)nc(N2CCN(c3ccccc3)CC2)n1 was tested. Which “hERG current change (%, negative = inhibition) at 1uM” value did it give?
Answer: 2.09%

Question: For COc1cccc(OCC(=O)N2CCCc3ccccc32)c1, which “hERG current change (%, negative = inhibition) at 1uM” value is on record?
Answer: 8.12%

Question: Cc1nc(N2CCC(C)CC2)c2oc3ccccc3c2n1 was tested. Which “hERG current change (%, negative = inhibition) at 1uM” value did it give?
Answer: 16.3%

Question: How did the “hERG current change (%, negative = inhibition) at 1uM” value turn out when COc1ccc(C)cc1C(=O)CCC(=O)NCCc1ccc(S(N)(=O)=O)cc1 was run?
Answer: 9.61%

Question: How did the “hERG current change (%, negative = inhibition) at 1uM” value turn out when COc1ccc(NC(=O)C/C(C)=N/NC(=O)c2cccs2)c([N+](=O)[O-])c1 was run?
Answer: -21.8%

Question: COc1cc(O)c(/C=N/NC(=O)c2ccncc2)c(OC)c1[N+](=O)[O-] was tested. Which “hERG current change (%, negative = inhibition) at 1uM” value did it give?
Answer: 1.14%

Question: With COc1ccc(S(=O)(=O)Nc2ccc(N3CCOCC3)cc2)cc1Br as the compound, how does the “hERG current change (%, negative = inhibition) at 1uM” value read?
Answer: 6.56%

Question: Which “hERG current change (%, negative = inhibition) at 1uM” value does the source give for Nc1nc(-c2ccc(Cl)cc2)c(S(=O)(=O)c2ccccc2)s1 here?
Answer: 11.4%

Question: How did the “hERG current change (%, negative = inhibition) at 1uM” value turn out when NC(=O)c1cccn(Cc2ccc(C(F)(F)F)cc2)c1=O was run?
Answer: 13.9%

Question: With Cc1ccc(-c2cc(C(=O)NC3=NCCS3)c3ccccc3n2)cc1C as the compound, how does the “hERG current change (%, negative = inhibition) at 1uM” value read?
Answer: 21.4%

Question: Which “hERG current change (%, negative = inhibition) at 1uM” value does the source give for CCCCC(CC)C1OCC(C[N+]2(C)CCOCC2)O1 (stereo not drawn) here?
Answer: 7.73%

Question: How did the “hERG current change (%, negative = inhibition) at 1uM” value turn out when Cc1onc(-c2c(F)cccc2Cl)c1C(=O)Nc1c(C)n(C)n(-c2ccccc2)c1=O was run?
Answer: 1.11%

Question: For COCCNC(=O)CCC1CCN(Cc2cccc(-c3ccc(C)o3)c2)CC1, which “hERG current change (%, negative = inhibition) at 1uM” value is on record?
Answer: 11.2%

Question: For CS(=O)(=O)N(CC(=O)N1CCCC1)c1ccc(Cl)cc1, which “hERG current change (%, negative = inhibition) at 1uM” value is on record?
Answer: 10.9%

Question: Which “hERG current change (%, negative = inhibition) at 1uM” value does the source give for CCOc1cccc(NC(=O)C2CC(=O)N(C)C(=Nc3cccc(F)c3)S2)c1 (stereo not drawn) here?
Answer: 9.17%
